The values below come from PubChem BioAssay AID1159614 (National Center for Advancing Translational Sciences (NCATS), 2016).

In all, about 45,000 compounds went through this assay and about 65 (0.1%) were called active. Calls follow the shape of the dose curve; as a rule, active = well fitted activation curve with a large enough effect; inconclusive = small, poorly fitted or top-dose-only effect; inactive = no such curve, though single readings can be large or run the other way. The list shows a part of the results.

Chain of UniProt P54803 (P54803 whole entry, looked up): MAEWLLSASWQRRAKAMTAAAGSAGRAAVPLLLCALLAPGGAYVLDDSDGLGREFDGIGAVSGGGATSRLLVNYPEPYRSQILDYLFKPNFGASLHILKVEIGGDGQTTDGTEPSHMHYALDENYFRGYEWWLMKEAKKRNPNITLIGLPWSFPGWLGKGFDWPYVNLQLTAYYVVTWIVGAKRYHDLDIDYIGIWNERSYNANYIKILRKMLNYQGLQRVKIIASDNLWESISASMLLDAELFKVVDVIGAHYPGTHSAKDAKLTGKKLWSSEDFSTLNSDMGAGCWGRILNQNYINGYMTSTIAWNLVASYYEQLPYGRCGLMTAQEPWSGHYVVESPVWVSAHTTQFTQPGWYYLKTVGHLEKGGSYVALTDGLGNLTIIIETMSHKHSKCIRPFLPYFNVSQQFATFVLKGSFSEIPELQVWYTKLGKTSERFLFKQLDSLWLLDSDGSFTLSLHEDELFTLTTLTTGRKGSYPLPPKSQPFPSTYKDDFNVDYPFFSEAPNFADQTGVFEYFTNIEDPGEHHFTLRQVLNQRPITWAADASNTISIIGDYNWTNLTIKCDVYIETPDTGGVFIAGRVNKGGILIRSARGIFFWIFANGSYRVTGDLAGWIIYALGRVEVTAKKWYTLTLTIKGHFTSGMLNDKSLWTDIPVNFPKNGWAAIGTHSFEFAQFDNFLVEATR

In this test the target is Galactocerebrosidase (Homo sapiens) (UniProt P54803). Nature of the test: A Novel Cell-Based Assay to Identify Small Molecules for B -Galactocerebrosidase. Also: 0% is about no effect; nearly all actives have a fitted effect of over 65% in size. Conditions: 145M-Twi-hGALC-G270D cells (Twitcher mouse brain line with human GALC G270D), HMU-beta-Gal fluorescence, 48 h; series mostly up to 57.5 µM; activation: at the top concentration. The gist of the method:
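Brain-derived Twitcher mouse 145M-Twi cells stably expressing human GALC-G270D or wild-type GALC, treated live, then residual GALC activity read by fluorescence of HMU-b-Gal substrate (0.1 mM final) in citrate-phosphate buffer pH 5.2 with sodium taurocholate. Signal increase indicates enhancement.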
Take `COc1ccc2occ(CC(=O)Nc3ccc(S(=O)(=O)Nc4nc(C)cc(C)n4)cc3)c2c1`: the “activation” value was inactive: -13%.

`COc1ccc(C2C(C(=O)Nc3ccc(C)cc3C)=C(C)Nc3nc4ccccc4n32)c(OC)c1` (centres undefined): the “activation” value was inactive: -4.61%. The same measure for `CCOc1ccc2c(c1)NC(c1cccs1)=NC(c1ccc(F)cc1)=N2`: inactive: -11.2%; for `O=C(CN1C(=O)COc2ccc(S(=O)(=O)Nc3ccccc3)cc21)Nc1cccc(Cl)c1`: inactive: -11.8%; for `COc1cccc2c1Oc1ncccc1N(C(=O)CCC(=O)NCc1ccccc1Cl)C2`: inactive: -6.09%. For the compound `COC(=O)c1ccc(Cn2nnc3c(=O)[nH]c(C4CCCN(S(=O)(=O)c5cccc(Cl)c5)C4)nc32)cc1` (centres undefined), the “activation” value was inactive: -8.32%. The same measure for `COC(=O)c1cc(NC(=O)Cn2nc(-c3ccc(C)c(C)c3)ccc2=O)cc(C(=O)OC)c1`: inactive: -18.6%. The same measure for `CCC(C)NC(=O)C1=CC(c2ccc3c(c2)OCO3)=NS(=O)(=O)N1C` (centres undefined): inactive: -8.88%. The same measure for `CC(C)(C)c1ccc(C(=O)N2CCCCC2CCN2CCCCC2)cc1` (centres undefined): inactive: -10%; for `CC(=O)c1ccc(NC(=O)CC(c2cccs2)N2Cc3ccccc3C2=O)cc1` (centres undefined): inactive: -17.9%. Regarding `COc1ccc(Cc2nc3ccccc3n2Cc2ccccc2F)cc1`, the “activation” value is inactive: -4.56%. The same measure for `CCN(C(=O)Cn1cnc2sc(C)c(S(=O)(=O)N3CCN(c4ncccn4)CC3)c2c1=O)c1ccccc1F`: inactive: -13.3%. The same measure for `CCOc1ccc(-c2cc(-c3nc(-c4ccc(OC)c(OC)c4)no3)[nH]n2)cc1`: inactive: -17.8%; for `Cc1ccccc1CSc1ncc(CO)n1Cc1ccc(F)cc1`: inactive: -12.7%. Take `COc1ccc(-c2nnc(C3CCN(S(=O)(=O)c4ccc(C)c(C)c4)CC3)o2)cc1`: the “activation” value was inactive: -0.43%.

Turning to `Cc1ccc(-n2ncc(C(=O)N3CCN(c4ccc(Cl)cc4)CC3)c2C2CCN(C(=O)OC(C)(C)C)CC2)c(C)c1`, the “activation” value was inactive: -15.8%.

For `CCOC(=O)c1ccc(NC(=O)c2ccc(=O)n(Cc3cccc(C)c3)c2)cc1`, the “activation” value was inactive: -31.2%. As for `CC(O)CNc1nc2c(c(=O)n(Cc3ccc(Cl)cc3)c(=O)n2C)n1C` (centres undefined), the “activation” value was inactive: 6.52%. The same measure for `COc1ccc(CCNC(=O)CCc2c(C)c3cc4c(C)coc4c(C)c3oc2=O)cc1OC`: inactive: 6%; for `COc1ccc(-c2cn3cccnc3n2)cc1NC(=O)c1cc(C)cc(C)c1`: inactive: -14.6%.

As to `Cc1cc(Cl)ccc1OCC(=O)N(Cc1ccco1)Cc1ccco1`, the “activation” value was inactive: 1.99%. The same measure for `CCC1CN(C(=O)Nc2ccc(C)c(F)c2)c2ccccc2S1` (centres undefined): inactive: -5.84%.

`Cc1cc2c(cc1S(=O)(=O)CCC(=O)NCCc1ccccc1)OCC(=O)N2`: the “activation” value was inactive: 3.86%. `CC(C)(C)C(=O)NC1(C(F)(F)F)C(=O)Nc2c1c(=O)[nH]c(=O)n2-c1ccccc1` (centres undefined): the “activation” value was inactive: -13.6%.

For the compound `CCOc1ccc(-n2nc3cc(C)c(NC(=O)c4cc(OCC)c(OCC)c(OCC)c4)cc3n2)cc1`, the “activation” value is inactive: -13.1%.

Regarding `Cc1nnc(N2CCC(C(=O)NCCc3ccccc3)CC2)c2nn(-c3ccc(Cl)cc3)c(C)c12`, the “activation” value is inactive: -4.01%. In the case of `COc1cc(OC)c(NS(=O)(=O)c2cc(-c3cnc(C4CC4)o3)ccc2C)cc1Cl`, the “activation” value is inactive: -8.06%. The same measure for `CCOc1ccc(-c2nnc(SCC(=O)NCc3ccccc3)o2)cc1`: inactive: -4.77%; for `O=C1CN(C(=O)c2ccc(S(=O)(=O)N3CCCC3)cc2)C(c2ccccc2)c2cc(Br)ccc2N1` (centres undefined): inactive: -15%; for `Cc1ccc(NC(=O)CN2CCSc3ccc(S(=O)(=O)N4CCCC4)cc32)cc1C`: inactive: -39%. The same measure for `Cc1ccc(-n2ncc3c(Nc4cccc(Cl)c4)ncnc32)c(C)c1`: inactive: -13.9%; for `O=C(Cn1nnnc1-c1ccccc1F)Nc1ccc(OC(F)(F)F)cc1`: inactive: 4.68%. The same measure for `CCOC(=O)c1c(C)n(-c2ccc(OC)cc2)c2ccc(OC(=O)COc3ccccc3)cc12`: inactive: -14.7%. In the case of `COc1ccc(CNC(=O)CCc2c(C)nc3c(c(C)nn3-c3ccccc3)c2C)cc1`, the “activation” value was inactive: -17.4%. The same measure for `CCN(Cc1ccccc1)C(=O)C1CCN(S(=O)(=O)c2ccc3c(c2)CCCN3C(C)=O)CC1`: inactive: -18.2%.

On to `O=C(CSc1nccn1Cc1ccc(F)cc1)Nc1nc2ccccc2s1`, for which the “activation” value was inactive: -34.1%. As to `CN(C)CC/C=C1\c2ccccc2Sc2ccc(Cl)cc21`, the “activation” value was inactive: -1.24%. Turning to `c1ccc([C@H]2CN3CCSC3=N2)cc1`, the “activation” value is inactive: -4.66%. Take `COc1cc(NC(=O)C2=CC(c3ccc(F)cc3)=NS(=O)(=O)N2C)cc(OC)c1OC`: the “activation” value is inactive: -8.46%. The same measure for `CCN(CC)c1cc(C)c2cc(NC(=O)/C=C/c3cc(OC)c(OC)c(OC)c3)ccc2n1`: inactive: -21.3%; for `CC(C)c1nnc(N2C(=O)c3oc4ccccc4c(=O)c3C2c2ccccc2F)s1` (centres undefined): inactive: -12.2%.

`COc1ccc(-n2nc(C(=O)N3CCCCC3C)c3c4ccccc4n(C)c3c2=O)cc1Cl` (centres undefined): the “activation” value is inactive: -9.32%. The same measure for `N#Cc1ccc(-c2cccs2)nc1SCc1ccc(Br)cc1`: inactive: -14%. In the case of `CCOC(=O)c1ccc(NC(=O)Cn2c(=O)cc(C)c3c(C)nn(-c4ccc(CC)cc4)c32)cc1`, the “activation” value is inactive: -3.06%. The same measure for `CC(C)N(C(=O)CSc1cn(CC(=O)N2CCCCCC2)c2ccccc12)C(C)C`: inactive: -15.4%. With `Cc1coc2c(C)c3oc(=O)c(CCC(=O)NCCc4ccccc4F)c(C)c3cc12`, the “activation” value is inactive: -9.15%. The same measure for `COc1cccc(C(=O)Nc2ccccc2C(=O)OCc2cc(=O)n3c4c(sc3n2)CCCC4)c1`: inactive: -23.9%; for `COc1ccc(CNC(=O)CN(C)S(=O)(=O)c2ccc3nc(C)sc3c2)cc1`: inactive: -6.34%; for `Cc1cccc(CC(=O)N2CC(=O)Nc3ccc(Br)cc3C2c2ccc(F)cc2)c1` (centres undefined): inactive: -22%. The same measure for `CCc1cccc(-n2nnc(-c3nsc(NC(=O)c4cccc(OC)c4)n3)c2C)c1`: inactive: -4.05%. Take `O=C(Cn1ncc2c3ccccc3n(Cc3ccccc3F)c2c1=O)NCc1ccccc1Cl`: the “activation” value is inactive: -7.04%.

For the compound `Cc1cc2c(cc1S(=O)(=O)Nc1cccc(C#N)c1)OCC(=O)N2`, the “activation” value was inactive: -4.89%. For the compound `CN(Cc1ccccc1)C(=O)c1ccc(CSc2nc3cccnc3n2Cc2ccccc2F)cc1`, the “activation” value is inactive: -13.8%. For the compound `COc1ccc(NC(=O)Cn2c(=O)n(CCC(=O)NCC3CCCO3)c(=O)c3cc(OC)c(OC)cc32)cc1` (centres undefined), the “activation” value was inactive: -19.1%.

Turning to `COc1ccccc1Nc1sc(C(=O)c2ccc(F)cc2)c(N)c1S(=O)(=O)c1ccc(C)cc1`, the “activation” value was inactive: -15.7%.

For the compound `COc1ccc(Br)cc1S(=O)(=O)Nc1cc(-c2cn3ccccc3n2)ccc1C`, the “activation” value is inactive: -12.7%.

For the compound `CCOc1ccc(CCNC(=O)c2cn(-c3ccc(OC)cc3)c(=O)c3ccccc23)cc1OCC`, the “activation” value is inactive: 1.9%. Take `CCOc1ccc(CNC(=O)C2CCCN(c3nnc(C)c4c(C)n(-c5ccccc5)nc34)C2)cc1` (centres undefined): the “activation” value was inactive: -11.8%.

For `CCOc1cc(C2NC(=O)c3c(sc4c3CCN(C)C4)N2)ccc1OC(=O)c1ccc(Br)cc1` (centres undefined), the “activation” value is inactive: 4.37%.
